# Measurements taken from the BET-seq Pho4 binding data (Le et al. 2018).
# The other results are listed elsewhere or left out. The energies were worked out here from pooled read counts, against the library average; single values are noisy.
# Molecular target: T1, Pho4 (S. cerevisiae) (UniProt P07270)
# T1 sequence: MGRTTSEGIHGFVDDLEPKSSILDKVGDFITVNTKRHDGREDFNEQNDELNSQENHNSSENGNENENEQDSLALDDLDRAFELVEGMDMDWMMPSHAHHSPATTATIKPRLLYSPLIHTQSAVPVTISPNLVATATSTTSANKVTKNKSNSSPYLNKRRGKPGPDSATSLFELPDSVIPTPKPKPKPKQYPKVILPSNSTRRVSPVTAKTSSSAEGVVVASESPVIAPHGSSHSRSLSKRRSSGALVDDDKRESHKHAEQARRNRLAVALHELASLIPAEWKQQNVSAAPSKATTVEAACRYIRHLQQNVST
# Assay: relative binding free energy (BET-seq); higher = weaker binding
# Details: reference: library average
row,Sequence,relative binding free energy [kcal/mol]
1,GTTGTCACGTGTCTTA,0.19
2,AGGTACACGTGGAGTA,0.02
3,AAATACACGTGTTTAT,0
4,AATTGCACGTGTGAGG,0.06
5,CGTTGCACGTGATAGT,-0.01
6,TCTAGCACGTGGGGCT,-0.19
7,AATGTCACGTGGTTGC,0.09
8,GCTAGCACGTGTTAGT,0
9,GGGTTCACGTGTTCTC,0.36
10,GGTTTCACGTGATGAA,0.38
11,TGTTTCACGTGGGACG,0.17
12,ATTAGCACGTGGGCTT,-0.1
13,ATTCGCACGTGGTGTC,-0.14
14,GAGTCCACGTGTGTGT,0.07
15,TAGGCCACGTGTTTGT,-0.07
16,CGGTTCACGTGATGTT,0.28
17,TGGGCCACGTGTGGTG,-0.08
18,TCTTGCACGTGGGTAT,-0.09
19,TAGTCCACGTGTATAT,0.05
20,GGGTGCACGTGGTTGG,0.04
21,TAGGGCACGTGTCAGA,-0.24
22,GTATTCACGTGTATGT,0.18
23,TATACCACGTGGGTGG,-0.21
24,GGTCTCACGTGGGAAG,0.2
25,ACATCCACGTGGGGTG,-0.04
26,ATTGTCACGTGGTCTA,-0.05

row,Sequence,relative binding free energy [kcal/mol]
1,AGCGACACGTGGGTAG,-0.25
2,ATGCTCACGTGTTTTG,0.06
3,GTAATCACGTGGTGTA,0.12
4,AGTTGCACGTGGGATC,0.05
5,TAGTGCACGTGGGACC,0.06
6,AGTGACACGTGTTGAT,0.05
7,GGTTTCACGTGTCGTA,0.4
8,GTGCACACGTGTTTGT,0.01
9,GATGGCACGTGTCGGA,0.09
10,GGACACACGTGTAGGT,0.11
11,TATATCACGTGAAAGG,0.43
12,TCTAGCACGTGATTGG,0.1
13,GATGGCACGTGATTAT,0.12
14,AAATGCACGTGTGAGG,0.19
15,GCGGCCACGTGATGGG,-0.04
16,TGAGGCACGTGGTAGA,-0.2
17,GGGTTCACGTGCGTGT,0.37
18,GGTTTCACGTGACAGT,0.29
19,GGGTACACGTGTACTG,0.07
20,ATTAGCACGTGTGTCG,-0.08
21,CGGTACACGTGAGGTA,0.37
22,AGTGCCACGTGGAGTG,-0.03
23,GCGGACACGTGGTGTA,0.04
24,TTGTACACGTGTATAG,0.06
25,TTGAACACGTGGATAG,0.15
26,GGTTTCACGTGAGTTT,0.51

row,Sequence,relative binding free energy [kcal/mol]
1,ATTGTCACGTGATCGT,-0.01
2,AATTTCACGTGCGATT,0.21
3,TGGCTCACGTGGTTAA,0.2
4,GAAATCACGTGTGGTG,0.11
5,TTTGACACGTGAGGGG,0.26
6,AAGGTCACGTGAGCGT,0.27
7,TAGAACACGTGTTGGT,0.04
8,ATGTTCACGTGAGTCG,0.4
9,GCGTGCACGTGTTGCG,-0.02
10,TCTGGCACGTGTCGGG,-0.11
11,GGCTGCACGTGATTAT,0.42
12,GGATACACGTGATTTG,0.37
13,AAGTTCACGTGGTGAA,0.23
14,AGCGGCACGTGGTGCT,-0.21
15,TTGTTCACGTGGTAGT,0.24
16,CGAGTCACGTGTATGT,0.08
17,GGTGACACGTGTATAT,0.02
18,GAGTTCACGTGTTGGA,0.39
19,TTATTCACGTGGGTGT,0.05
20,TTGAGCACGTGATGTC,0.03
21,AGACTCACGTGGGGAT,0.05
22,TATTTCACGTGTGTCT,0.25
23,TGTCTCACGTGGATGG,0.18
24,TCGAGCACGTGGTGGG,-0.2
25,AAGCGCACGTGGGTAT,-0.24
26,TTCGTCACGTGGATCT,0.23

row,Sequence,relative binding free energy [kcal/mol]
1,TGTGACACGTGGGGGC,-0.18
2,TGGCGCACGTGTTTCA,0.05
3,ATTAACACGTGAAAGT,0.27
4,GTTCTCACGTGTAAGT,0.43
5,TGAGCCACGTGTTGAG,-0.08
6,ATCGTCACGTGTGGGG,0.05
7,TCAAGCACGTGTTAGT,-0.04
8,GGTGACACGTGTAATA,0.15
9,TGGAGCACGTGGGTAA,-0.11
10,AATAGCACGTGAATGG,0.31
11,GAAATCACGTGTGGTT,0.31
12,GATTGCACGTGCTTGG,0.09
13,GCTTACACGTGGATGT,0.29
14,TATTGCACGTGATTGT,0.14
15,ATAGGCACGTGATGGC,0.07
16,TATGGCACGTGGGTGA,-0.15
17,TGTGTCACGTGAGGCT,0.19
18,ATAATCACGTGATAGG,0.11
19,AATTACACGTGTAGTG,0.08
20,GGCGGCACGTGTGGAG,-0.03
21,ATGGGCACGTGGAGAC,-0.04
22,TGCGTCACGTGTGTTA,0.22
23,ATGTCCACGTGGTTGA,-0.12
24,TTATTCACGTGATTAC,0.49
25,GTTATCACGTGGTATG,0
26,CGATGCACGTGGGTAT,-0.11

row,Sequence,relative binding free energy [kcal/mol]
1,GGCAGCACGTGGTCGG,-0.24
2,CGATGCACGTGTTGGC,0.23
3,TTTGTCACGTGCGAAT,0.02
4,GGTCACACGTGCGGTA,0.08
5,TAGCGCACGTGTAAGT,0.16
6,AGGTACACGTGTTTGC,0.05
7,AATTTCACGTGTGGCG,0.46
8,ATGTTCACGTGGCGTT,0.22
9,TTGAGCACGTGGTGTT,-0.13
10,GAGGGCACGTGAGGTC,0.08
11,TGGTACACGTGATCAT,0.18
12,TGGAGCACGTGAGAGA,0.25
13,TGTCGCACGTGGCTGG,-0.12
14,GGATTCACGTGCGTTT,0.2
15,GCTGGCACGTGAATGT,0.03
16,TTGGACACGTGAGGAA,0.33
17,GGAGACACGTGGTTGG,-0.08
18,AATTGCACGTGTTCTT,0.03
19,GTTATCACGTGACGGA,0.39
20,TTTGGCACGTGAATTA,0.06
21,AGTGACACGTGTGGCA,0.01
22,CGGGGCACGTGTGGTG,-0.09
23,TGCGTCACGTGCTAGT,-0.04
24,TATGGCACGTGCGGGT,-0.15
25,ATTTGCACGTGGAGAT,0.09
26,TAGTCCACGTGATGGG,-0.04

row,Sequence,relative binding free energy [kcal/mol]
1,TCACTCACGTGTGAGT,0.34
2,CTTGACACGTGAATGG,0.24
3,ATGTCCACGTGTTGAT,-0.01
4,GGGGTCACGTGTGTTT,0.24
5,TAAATCACGTGATGGT,0.14
6,AAAGTCACGTGGATAA,0.16
7,CAGGGCACGTGCGGTA,-0.06
8,GGTGTCACGTGGGAGC,0.23
9,GTTCTCACGTGTAATG,0.19
10,ACTTGCACGTGCTGGT,-0.08
11,GCCGGCACGTGCTGGG,-0.01
12,GGTGACACGTGTCGTA,0.05
13,TGGGTCACGTGGCTGC,0.07
14,ACTTTCACGTGCGGTT,0.4
15,CTGCTCACGTGGTTGT,0.11
16,GTAGGCACGTGGTCCG,-0.21
17,GCGGTCACGTGTTTGA,0.2
18,GTATTCACGTGATGGG,0.33
19,TAGTTCACGTGTAGGA,0.27
20,TTCGGCACGTGTGCTG,0
21,AGCGTCACGTGGTTGC,-0.06
22,GGTGGCACGTGCCTTT,-0.01
23,TGTACCACGTGGGTGG,-0.16
24,CGTTTCACGTGGTTAG,0.29
25,CTTTGCACGTGTGTCT,-0.02
26,TGTATCACGTGTCATT,0

row,Sequence,relative binding free energy [kcal/mol]
1,TTGATCACGTGCGGAT,0.13
2,ACTATCACGTGTTTTG,0.17
3,CCGTTCACGTGGTTTG,0.25
4,GGTTGCACGTGAGGCT,0.17
5,AGGGTCACGTGCGCGG,-0.1
6,TGATTCACGTGTAAAG,0.27
7,TTATACACGTGGCGAT,0.08
8,GTCTGCACGTGAGAGT,0.16
9,GTGCGCACGTGTGTAA,-0.13
10,GAGGGCACGTGGTGCT,-0.07
11,TAAGTCACGTGGCGTA,-0.09
12,TTAAGCACGTGGAGGC,-0.12
13,TATGACACGTGTGTGG,0
14,GGCGGCACGTGGGAGC,-0.15
15,TGTAACACGTGCCGGG,-0.07
16,TTTATCACGTGAAGAT,0.35
17,ATGGCCACGTGTAGTG,0.02
18,TGGAGCACGTGAGGCC,0.11
19,ATATTCACGTGGTTTG,0.2
20,ATTATCACGTGATTCG,0.32
21,AAGAGCACGTGGGATG,-0.21
22,ATATACACGTGGGGGT,-0.08
23,AGGAACACGTGGAGGA,0
24,GGCAGCACGTGTCGGG,-0.15
25,TATGTCACGTGAGAAT,0.22
26,TTGTACACGTGCGTTA,0.09

row,Sequence,relative binding free energy [kcal/mol]
1,TGGATCACGTGTTGTG,0.19
2,AATATCACGTGGTGTG,0.05
3,TGGCGCACGTGATATT,0.15
4,GTGGTCACGTGTGACA,0.1
5,CATGGCACGTGTTTTG,0
6,TTAGTCACGTGGAAAT,0.28
7,AATGGCACGTGAGAAT,0.2
8,GGATGCACGTGTAGAA,0.08
9,AATGGCACGTGATATG,-0.09
10,TTTGTCACGTGTTTTC,0.02
11,GATGCCACGTGGGTGT,-0.18
12,TCTGGCACGTGGATTG,-0.06
13,TTGGACACGTGATATA,0.24
14,GTTTACACGTGACGTT,0.32
15,CTGATCACGTGGGGGG,-0.03
16,AATTTCACGTGTGATT,0.36
17,GGTCGCACGTGCTGTT,-0.15
18,CGTATCACGTGTAGGT,0.19
19,ATGTTCACGTGTGGCT,0.27
20,GTACTCACGTGTGAGT,0.15
21,GAATACACGTGATTGG,0.34
22,GTTGTCACGTGATTCG,0.14
23,GTGCACACGTGTGCGG,0.06
24,GGTGGCACGTGAGTAA,0.08
25,TAAGGCACGTGGGGGG,-0.2
26,TGGTTCACGTGGAACG,0.32

row,Sequence,relative binding free energy [kcal/mol]
1,CGAGGCACGTGATGTG,0.03
2,GTTTTCACGTGAGGAT,0.49
3,ACGGACACGTGTGAGG,0.06
4,CGGTACACGTGTGTTC,0.19
5,CAGATCACGTGAGTGG,0.34
6,AGATTCACGTGTAAGT,0.29
7,GTGTGCACGTGGAATC,0.11
8,AGATACACGTGGGTCT,-0.04
9,GGTGACACGTGGGCTT,-0.14
10,GAGGACACGTGCGTGG,-0.04
11,ATAAGCACGTGGGGGA,-0.13
12,TTAAACACGTGTGGAT,0.13
13,CATTGCACGTGGTTAG,-0.05
14,AGTGACACGTGGGCGG,-0.24
15,GGGTTCACGTGCGAAG,0.25
16,AGTAACACGTGGTTTT,-0.03
17,CGTAGCACGTGTAGGT,0.03
18,ATTTGCACGTGGACGT,0.03
19,TAGGTCACGTGTGCGT,0.08
20,ATAAGCACGTGTTAGG,-0.27
21,TCAGTCACGTGGGGCG,-0.21
22,CGGATCACGTGAAGGG,0.44
